Assay results taken from the supplement of paper PMC3334620.
Whole data set: some 33,000 sequences, median “E-score (-0.5 to 0.5)” near -0.016, cut for the highest 2% near 0.31. The list shows a part of the results.

These sequences were tested against Cst6 (UniProt P40535) (assay: PBM E-score (8-mer binding enrichment) (E-score (-0.5 to 0.5)); higher = stronger / more preferred TF binding; most listed sequences are background and not binding sites). Conditions: protein concentration: 200 nM; construct: GST-DNA-binding domain.
Method in brief: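 For each ungapped eight-base word taken together with its reverse complement, the Universal PBM Analysis Suite assigned an E-score. Binding data came from GST-tagged yeast transcription factors, applied at about 100-200 nM, on universal all-10-mer Agilent arrays made double-stranded by primer extension. Fluorescent anti-GST marked bound protein, and scans were normalised with masliner.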

Sequence | PBM E-score
AATTCAGA | 0.0495
CACGGGGG | -0.209
TGACCTCA | 0.45
CTTGGCAA | -0.151
CAATGCTG | -0.0945
GGAGTACA | -0.195
CAAAAGCG | 0.0348
GGAATTCA | -0.0551
ACAAAACT | 0.199
AATGGAAC | 0.0271
AAGAATAG | 0.108
ACCAGAGC | -0.0786
AACTCAAG | -0.0175
AGTTGGTA | 0.155
ACTTGGCG | -0.143
GCGACCCC | -0.3
CGAAAGCG | -0.0837
AGGGCTCC | -0.376
GGGACATA | -0.0929
CCTTGTCG | -0.171
ATCTCATG | -0.00941
ACATCGGC | -0.0191
GCATTCAC | 0.143
ACAATAGT | 0.13
AAGAATAA | 0.212

Sequence | PBM E-score
AACAGACG | -0.0682
AAACTTCG | 0.0971
GCAAAGAC | 0.0343
ACTTGGAA | -0.0384
ATCTGGCA | 0.043
CCAGACGA | -0.23
ACGGCAAG | 0.0822
AATGCCAC | 0.00101
GTCGTATA | 0.0476
AAGGAGCT | -0.23
CTACATGC | -0.0289
GACGCCAC | 0.221
ATCGGACC | -0.197
CCCCCAAC | -0.319
GTAGCAGA | 0.174
ACCCCGCG | -0.216
AAGGAAGC | -0.261
TAGAACCA | -0.128
GCAAGATA | 0.103
CCTGTGGA | -0.38
GTGCTGGA | -0.274
CAGGCACA | -0.332
CTAGATGA | 0.0805
AGAGGTGC | -0.186
GAGGTTTA | -0.0683

Sequence | PBM E-score
GTAATAAC | 0.197
ACGCTAAC | 0.0936
GCGACCGC | -0.125
ATGCCGGC | -0.164
GCTGGTCA | -0.122
ATATGCAG | -0.116
CCTCAAAG | -0.0862
AGCAGTGA | 0.148
AGGGTCGA | -0.254
AACTGTCT | -0.123
CCGTTTAG | 0.00119
ATGGTGGA | -0.172
ACCTCAGT | 0.013
AGTGAGTC | -0.0412
AAGCGTTA | -0.149
ATTTAGAG | 0.0903
GCCCTTCC | -0.121
CAATTTGC | -0.0498
AAGCGGAC | -0.119
ATTCGCTG | 0.0849
AACCGCTT | -0.0625
ATCGGGAG | -0.228
GACCGCGC | -0.119
CGAGAAAC | -0.173
GCGAAGTA | 0.0714

Sequence | PBM E-score
ACCGGGGC | -0.0853
CACGGTGG | -0.124
ATCGACAC | -0.104
ACGGTGAC | 0.307
CTTCACAA | -0.0895
ACAATGAG | -0.0976
CCACGCTC | -0.197
ATCTTTCG | 0.0283
AACAGTGG | -0.141
CCTACCCC | -0.353
GATAGTAC | -0.0262
CTGCCGAC | -0.208
ACATAAAA | 0.215
AAATCAGA | 0.152
CAACCTGG | -0.0574
CCCCGGAA | -0.285
ACGTCGAT | 0.316
ACTAACTC | -0.0482
ACTTGTCT | -0.056
ATTCTCCA | -0.00083
AGACGGGA | -0.17
CCCCCACA | -0.344
CCACGCCC | -0.318
ACCAATCA | 0.0481
GTCTTTCA | 0.103

Sequence | PBM E-score
ACAGACAT | 0.0036
ACGTTTGC | 0.0388
TACCATGA | 0.0226
AGGGCCCG | -0.287
CTGATAAG | 0.147
CAATTAGC | 0.00345
CCGTCATA | 0.363
ACACTTTA | 0.0824
ATTGTAAA | 0.219
ATTCAACG | 0.217
ACCTATAC | 0.0599
ATGGACTC | -0.198
TATAGATA | -0.0669
CTGGGTCA | -0.186
AGTGGTGG | -0.141
GAGCTGTA | -0.205
CCCTGTTA | 0.0582
GGCGGCAC | 0.0354
CATGTGCG | 0.0289
AAATAAAT | 0.371
CGTCACTC | 0.445
TCACGCAA | 0.375
AGGGGCTA | -0.209
CGTGCCAA | -0.0861
TGCTCGAA | 0.0655

Sequence | PBM E-score
CCCTAAAC | -0.276
CGCGAGCA | -0.247
ATAGAATG | 0.182
GTTTCTGA | 0.221
AGACTAAC | -0.0674
ACCGTAAC | -0.0255
AACCAGAT | -0.0219
CGGACCAA | -0.0116
GGGAGTTA | -0.134
CGGGTCTC | -0.105
CTAAACGC | 0.159
GCATGGGC | -0.152
ATTTCTGA | 0.0722
TACCACCA | -0.157
AAGCCCCC | -0.414
ATACTTAG | -0.0181
GGCCTGCA | -0.378
AGTTTTCG | 0.117
GGGGCAAC | -0.306
CCCTCATA | -0.146
CAATCCCC | -0.123
AGACCTAA | -0.182
TCTAGAAA | 0.0203
TAATACGA | 0.102
CTCTATAC | -0.125

Sequence | PBM E-score
AGCGCTAA | 0.2
AAGTTAAG | -0.0646
ATTAGTGG | 0.101
ACCGTTTA | 0.138
ATACTCAA | 0.225
CTCCAACA | -0.0106
CATACGAC | 0.0917
CATTAGGC | -0.0705
AGTTCAAC | 0.0452
CATGCCGA | 0.0855
AGTCTACA | -0.128
CAACTGTG | -0.0636
AGGGGGCG | -0.302
ACCTTCCA | -0.0265
AGGGCTTA | -0.194
ACGACCTA | -0.115
ATGCAGTG | 0.0501
AATTCGCT | 0.238
AGCGTGAG | -0.0329
AATGTGGT | 0.116
CGGACTCA | -0.149
TAACAAGA | 0.0653
AATAACCC | 0.0003
GGACTCCC | -0.335
AAATACAG | 0.0865

Sequence | PBM E-score
GATATGAC | 0.273
AATAGTCA | 0.115
AGCAGGCC | -0.287
AACGTCTC | -0.0757
CTACGCTA | -0.0928
ATTTAAGG | 0.0163
TGAGGGAA | -0.0338
AATCATGG | 0.0769
ATTAATAA | 0.223
ATCTCCGG | -0.108
ATCCTATG | -0.131
AACGAGCA | -0.0858
GCTCCAAA | -0.111
ATAATAGC | 0.0648
CAACGCAC | -0.00354
CTAGTCTC | -0.14
TACACGTA | 0.262
AATGAGGT | 0.287
CCCTACAC | -0.182
CGTCATCA | 0.487
CTGTGAGC | 0.135
ATCTCGAA | 0.137
ATTTCTGG | 0.0967
GGAGGATA | -0.142
CAAACTTC | 0.177

Sequence | PBM E-score
AGGTACTA | 0.0656
CCCTGGGC | -0.223
CCGGGGCC | -0.296
CCCCCCCC | -0.414
TCGAGACA | -0.131
AAATGACA | 0.298
ATTCCTGA | -0.0224
CTGCTACA | -0.0466
CGCGGAGA | -0.0412
CCGTGTCA | 0.0651
TCGACTAA | 0.0566
AAGGATCG | 0.0512
CCCACAAG | -0.167
CAAGGAGC | -0.0255
CATGACTA | 0.0239
AATTAATG | 0.174
ACCTATCC | 0.0003
CACTTAGC | -0.141
ACTTGTGG | -0.0826
AAATTTTC | 0.079
CCTGTTCA | -0.157
ATTGTGGC | -0.0113
AAACGACC | -0.114
AAACCTCA | -0.013
CGTCCAGC | -0.261

Sequence | PBM E-score
GCATGAGC | -0.0643
ACACAGGA | -0.155
CCGTAGTC | -0.277
GAATGAGC | 0.0955
GAGCTGGC | -0.167
GAGGACGC | -0.26
AACCCTAG | -0.264
TGTCGCAA | -0.0273
GTCCGATA | -0.234
CACGGACC | -0.0301
AAAACAGC | -0.0126
CCCCGGTA | -0.322
CACCCCCC | -0.355
AGTATCCG | -0.00831
ATATCCGA | 0.133
ACGGAGTC | -0.0457
CCGTGCAC | 0.0355
AAATGCCA | -0.00289
GGCGCGAC | 0.209
AGAAAGTA | 0.205
CCTCCCCC | -0.338
CATCGAGG | -0.113
AGTGCCCC | -0.169
GTGCTCAA | 0.0979
ACCCACTA | -0.116

Sequence | PBM E-score
TAGGGTAA | 0.0225
ACGTGAAA | 0.234
CGCCATTC | 0.00749
ATCATGAT | 0.261
ACGTCAAG | 0.373
AAGGCACA | 0.185
GGTCATAA | 0.213
CTCCGTTA | -0.0151
AATCAATC | 0.229
GATGTTAA | 0.183
ACAGATAA | 0.0508
AGCGTACC | -0.157
CCCGAATC | -0.283
GTATGCGA | 0.142
TCGCCTCA | 0.0864
TCTCTCCA | -0.0706
TCCCAGAA | -0.0898
CCTTACTA | 0.072
ACACTGTA | -0.00031
ATTATTTA | 0.305
ATATTCGA | -0.111
ACGTGTAA | 0.28
AAGCGCAG | -0.0668
CAAGGACC | -0.239
ATCCTCCC | -0.307

Sequence | PBM E-score
CATTACCA | 0.138
AGGCGGGG | -0.116
GCTTTGAA | -0.0304
TGATCCCA | 0.0272
ATGTAGTC | 0.13
CACTACAG | 0.0653
GGTAACCA | -0.124
CGGAGTAC | -0.307
CAGATGCC | -0.139
CCATTCAG | 0.134
GACGGGGA | -0.233
CGCGGGCC | -0.0146
CGTGGAAC | -0.0795
ATTGTGGA | 0.0779
ACGTGAAC | -0.00098
CATGGTAC | -0.108
GGATGGGA | -0.197
AGGTCCTA | -0.261
GCTTGGTA | -0.0538
CACTTCTA | 0.0156
CTGATCAC | -0.0556
AAGAACGA | 0.0922
CATCGGGG | -0.311
AAAGGCTG | -0.166
CGCACTTA | 0.1

Sequence | PBM E-score
TCGGTACA | 0.00999
ACGTCAGG | 0.413
AAAAGCCA | 0.182
CCCGCAGG | -0.293
TAGTACAA | -0.00017
CCCGTGAG | -0.0936
CTTTATTC | 0.0295
CCCTGGCC | -0.249
GCCACCGC | -0.126
ATCGGTTA | 0.0811
GAAGAAAA | 0.0816
ACCCGTGC | -0.0192
CAAGATTG | 0.0515
CCTGCAGG | -0.133
CATAGTCA | -0.0726
AGAAGAGG | -0.0166
ATAACTAC | 0.193
CACCCCTC | -0.0461
CGAGTCTC | -0.416
CGACCTAA | 0.11
GTTTATAA | 0.208
GCTACGTA | 0.213
ACTTGCAT | 0.134
ATTGCAGC | -0.0128
ACAGCGGG | -0.0301

Sequence | PBM E-score
CCCATACA | -0.0517
ACCTAAAC | 0.143
ATGCCTGG | -0.25
AGAAACCA | 0.0936
GGGGAAAA | -0.101
ATCCTAGC | -0.00153
GTTCTACA | -0.0742
CGGCTGCA | -0.154
CATAGGAC | -0.146
CAGAACGA | 0.0019
AGATCGCC | 0.00791
GAGCCTAA | -0.0425
ATAATTCA | 0.253
GAAGGCGC | -0.0358
CGTTAACG | -0.103
CAAGAACC | 0.187
TGCCGTAA | 0.238
TCTGACAA | 0.0678
CCGTTCCA | 0.0312
